Results on 90 molecules are retold here after PubChem BioAssay AID463173 (ICCB-Longwood Screening Facility, Harvard Medical School, 2010).

Hit rate of the full screen: of about 52,000 compounds, about 4,300 (8.3%) were called active. Cut-off read from the data, not from the text of the source: active = survival mostly below about 52% (no sharp cut-off); inactive = mostly above about 56%. This is one part of the list.

The subject of the experiment is DeltatarO mutant. As to the kind of experiment: S. aureus survival, RN4220 and DeltatarO strains – OD600, teichoic acid synthesis inhibitors, primary screen (AID 463173). The following applies: S. aureus RN4220 wild type/DeltatarO growth, OD600, 18 h, active compounds read low, screened at 18.75 µg/mL (by protocol).
Take `Cn1c(CNc2cccc(C(F)(F)F)c2)n[nH]c1=S`: the survival is inactive: 95%.

Regarding `CCC(C(=O)NCc1ccccc1Cl)n1c(=O)c2cccn2c2ccccc21` (stereo not given), the survival is inactive: 47%. For `COC(=O)c1cc(OC)c(OC)cc1NC(=O)c1ccc2c(c1)CCN2S(C)(=O)=O` the value was active: 37%; for `Cc1ccc2c(c1)N(C(=O)c1ccc(F)cc1)C(C)(C)CC2(C)c1ccccc1` (stereo not given), active: 24%.

On to `O=C(NCc1ccccc1)c1c2c(nc3ccccc13)C(=O)N(C1CCCCC1)C2`, for which the survival was inactive: 69%. Take `CCc1ccccc1N1C(=O)N(Cc2cc(=O)n3ccccc3n2)c2ccccc2S1(=O)=O`: the survival was inactive: 84%. For `CCOC(=O)c1[nH]c(C)c(CCC(=O)N2CCN(c3ccc(Cl)cc3)CC2)c1C` the value was inactive: 80%; for `CCS(=O)(=O)c1nc(S(=O)(=O)c2ccc(Cl)cc2)c(NCc2ccc(Cl)cc2)s1`, inactive: 70%; for `COc1ccc(-c2ccc(=O)n(CC(=O)Nc3ccc(Br)cc3F)n2)cc1`, inactive: 84%.

Turning to `Cn1c(=O)c2c(-c3ccccc3)n(-c3cccc(C#N)c3)cc2n(C)c1=O`, the survival is inactive: 77%.

For `CC1(C)NC(=O)N(CC(O)CN2C(=O)NC(C)(C)C2=O)C1=O`, the survival was inactive: 93%. For the molecule `CCc1ccc2nc(N(Cc3cccnc3)C(=O)Cc3ccccc3)sc2c1`, the survival is inactive: 99%.

`COc1ccc(Cc2c(C)nn(-c3nc(C)c(C(=O)Nc4cccc(C(C)=O)c4)s3)c2C)cc1`: the survival is inactive: 71%.

As for `Cn1c(=O)c2c(-c3ccc(Cl)cc3)ccnc2n(C)c1=O`, the survival was inactive: 53%. The value for `CC(C)(C)n1cnc2cc(N=Cc3ccccc3O)ccc21` was inactive: 81%; that for `O=S(=O)(NCC(c1ccco1)N1CCN(c2ccc(F)cc2)CC1)c1cc(F)ccc1F` (stereo not given) was inactive: 86%; that for `COc1ccc(OC)c(CCNc2nc3cc(OC)c(OC)cc3c3nc(-c4cccnc4)nn23)c1` was inactive: 126%. Turning to `COC(=O)c1ccc2c(c1)N(CC(=O)Nc1ccc(C)c(C)c1)C(=O)c1ccccc1S2`, the survival was inactive: 88%. For `CCS(=O)(=O)N1CCc2cc(C(=O)Nc3cc(C)cc(C)c3)ccc21`, the survival is inactive: 80%. The value for `Cc1ccc(C)c(N2CCN(C(=O)NCc3noc4ccccc34)CC2)c1` was inactive: 51%. As to `COc1ccc2oc(=O)c(C(=O)NCc3ccco3)cc2c1`, the survival is inactive: 100%. The value for `Cc1cc2oc(C(=O)Nc3sc4c(c3C(=O)NCC3CCCO3)CCCC4)cc(=O)c2cc1C` (stereo not given) was active: 47%; that for `Cc1ccc2nc(Nc3cccc(C(F)(F)F)c3)c3nnnn3c2c1` was inactive: 89%. For `COc1ccc(N2CCN(C(=O)c3cn(C)c4ccc(S(=O)(=O)N5CCOCC5)cc4c3=O)CC2)cc1` the value was inactive: 85%; for `CCC1Oc2ccccc2N(CC(=O)NCc2ccccc2)C1=O` (stereo not given), active: -1%; for `Cc1cc(Nc2cccc(Cl)c2)nc2ccc(NC(=O)Cc3c(F)cccc3Cl)cc12`, inactive: 92%. For `Cn1c(=O)c(=O)n(C)c2cc(N3CCCC3)c(NC(=O)c3ccccc3Cl)cc21` the value was inactive: 90%.

Take `COc1ccc2nc(N(Cc3cccnc3)C(=O)c3ccc(Cl)cc3)sc2c1`: the survival is inactive: 89%. For `CCOc1ccccc1CNC(=O)CN1C(=O)c2cccnc2Oc2ccc(Cl)cc21` the value was inactive: 90%.

As for `Cn1cccc1C(=O)c1cccc(Br)c1`, the survival was inactive: 69%. The value for `COc1ccc(S(=O)(=O)N2CCCCC2)cc1C(=O)NC1CCS(=O)(=O)C1` (stereo not given) was inactive: 94%; that for `Cc1ccc(C(=O)c2cn(Cc3ccccc3)c3c(F)cc(F)cc3c2=O)cc1` was inactive: 82%; that for `O=C(Nc1ccccc1)c1ccc(Cl)c(S(=O)(=O)Nc2ccccc2)c1` was active: 43%. The value for `CCS(=O)(=O)N1CCC2(CC1)OC(=O)C(C)=C2C(=O)NCc1ccc(OC)c(OC)c1` was inactive: 89%; that for `Cc1ccc(NC(=O)c2nc(S(C)(=O)=O)ncc2N(Cc2ccco2)Cc2ccco2)cc1` was inactive: 44%; that for `CN(Cc1ccccc1)c1nc2c(S(=O)(=O)c3ccccc3)nnn2c2ccsc12` was inactive: 70%. For `Cc1ccc(S(=O)(=O)c2nnn3c2nc(NC2CCCCC2)c2sccc23)cc1C` the value was active: 35%; for `Cc1ccc(-c2nc(-c3cccs3)c(-c3cccs3)[nH]2)cc1`, inactive: 62%; for `Cc1cc(C)cc(OCC(=O)N(Cc2ccco2)Cc2ccccc2Cl)c1`, inactive: 73%. On to `COc1ccc(NC(=O)CN2C(=O)C(=O)c3ccccc32)c(OC)c1`, for which the survival is active: 52%. Regarding `Cc1c(C(=O)Nc2ccccc2F)sc2nc3n(c(=O)c12)CCC3`, the survival is inactive: 87%.

Consider `CCn1c(=O)c2sccc2n2c(CCCC(=O)Nc3ccc(Oc4ccccc4)cc3)nnc12`, for which the survival was inactive: 83%. In the case of `O=C(Nc1ccc(Br)cc1)c1cc(S(=O)(=O)N2CCc3ccccc32)ccc1F`, the survival was inactive: 126%.

With `CCOc1ccccc1CNC(=O)CN1C(=O)c2cccnc2Oc2ccc(C)cc21`, the survival was inactive: 107%. For `CC(NC(=O)/C=C/c1ccccc1)C1COc2ccccc2O1` (stereo not given) the value was inactive: 70%. The value for `C/C(=N/NC(=O)c1c(N)no[n+]1[O-])c1cccs1` was inactive: 71%; that for `Cc1ccc(N(O)C(=O)Nc2ccccc2)cc1` was inactive: 84%; that for `COc1ccc(-c2noc(CC(=O)N(C)c3cc(Cl)c(OC)cc3OC)n2)cc1` was inactive: 82%.

As for `CCCCN(C)C(=O)c1ccc2c(c1)NC(=O)C(CC(C)C)N2` (stereo not given), the survival is inactive: 78%. The value for `COc1ccc(OC)c(NC(=O)N2CCC3(CC2)Oc2ccccc2C(=O)N3Cc2ccccc2F)c1` was inactive: 80%. For `CCN1C(=O)C2(c3ccccc31)c1c(oc3ccccc3c1=O)C(=O)N2CCOC` (stereo not given) the value was inactive: 67%; for `CCn1c(N2CCN(S(C)(=O)=O)CC2)nc2ccccc21`, inactive: 81%. For `Cc1ccc(CCNC(=O)CCCn2c(=O)c3cccn3c3ccc(F)cc32)cc1` the value was active: 33%; for `CCCCN(CC)CCCNC(=O)c1sc2nc3n(c(=O)c2c1C)CCCCC3`, inactive: 55%. As for `O=C(CN1C(=O)COc2ccc(Cl)cc21)Nc1cccc(C(=O)O)c1`, the survival is inactive: 54%.

Consider `COCCNC(=O)c1cc(-c2cccc(Cl)c2)on1`, for which the survival is inactive: 134%. For `Cc1ccc(NC(=O)Cn2c(=O)n(CC(=O)NCCc3ccccc3)c(=O)c3ccccc32)cc1` the value was inactive: 89%; for `COc1ccc(C)cc1-n1c(SCC(=O)NCc2ccco2)nc2c([nH]c3ccccc32)c1=O`, inactive: 91%; for `COc1ccc(CNC(=O)CCc2c(C)nc3c4cccnc4nn3c2C)cc1`, inactive: 83%. The value for `COc1ccc(CC(=O)Nc2nnc3n2CCS3)cc1OC` was inactive: 74%; that for `CCCCN(CC)CCCNC(=O)c1nn(-c2ccc(OC)cc2)c(=O)c2c1c1ccccc1n2C` was inactive: 123%. For `CNC(=O)C1CCC(Cn2c(=O)c3sccc3n(CC(=O)Nc3ccccc3)c2=O)CC1` (stereo not given) the value was inactive: 75%; for `O=C(Nc1ncc(Cc2ccccc2Cl)s1)c1ccc2c(c1)CC(c1ccccc1)OC2=O` (stereo not given), inactive: 59%; for `CCOC(=O)c1c(C)[nH]c(C)c1S(=O)(=O)N1CCCC(C(=O)N2CCN(c3ccc(Cl)cc3)CC2)C1` (stereo not given), inactive: 96%. As for `CCOC(=O)c1[nH]c(C)c(CCC(=O)N2CCN(c3cc(Cl)ccc3C)CC2)c1C`, the survival is inactive: 84%. The value for `COc1ccc(Cl)cc1NC(=O)C1CCCN(c2cc(C)nc3ncnn23)C1` (stereo not given) was inactive: 93%; that for `Cc1nnc(N2CCN(c3ccccc3)CC2)c2c1nnn2Cc1ccc(F)cc1` was inactive: 83%; that for `O=C(Nc1ccccc1C(=O)OCc1cc(=O)n2c3c(sc2n1)CCCC3)c1ccc(Cl)cc1` was active: 0%. Consider `Cc1ccc(C)c(NC(=O)CCn2cnnn2)c1`, for which the survival is inactive: 148%. In the case of `O=C1Nc2c(c(=O)[nH]c(=O)n2-c2ccc(Cl)cc2)C1(NS(=O)(=O)c1ccccc1)C(F)(F)F` (stereo not given), the survival is inactive: 77%. The value for `COc1ccccc1Cn1c(CNS(=O)(=O)c2ccc(Cl)s2)nc2cccnc21` was inactive: 100%; that for `CCOc1ccccc1CNS(=O)(=O)c1cnc(N)nc1` was inactive: 79%.

Take `CCC(=O)N1CCc2cc(Br)cc(S(=O)(=O)N3CCCC(C(=O)Nc4ccc(CC)cc4)C3)c21` (stereo not given): the survival is inactive: 84%. For the molecule `CCOC(=O)c1cccc(NC(=O)Cc2ccc(NC(=O)N3CCCCc4ccccc43)cc2)c1`, the survival is inactive: 76%. For `CC1=NC(C)(C)Cc2ccccc21` the value was inactive: 94%; for `CC(=O)c1cccc(NC(=O)Cn2cnc3c2c(=O)n(C)c(=O)n3C)c1`, active: 44%; for `OCCCNC(c1ccccc1)c1ccc(O)cc1` (stereo not given), inactive: 85%. The value for `Nc1c(C(=O)c2ccc3c(c2)OCO3)sc(Nc2ccccc2F)c1S(=O)(=O)c1ccccc1` was inactive: 71%; that for `COc1ccc(C)cc1N(CC(=O)N1CCC(C)CC1)S(=O)(=O)c1ccc(C)cc1` was active: 55%. For `CCOC(=O)CSc1nc2sc3c(c2c(=O)n1CC)CCCC3` the value was inactive: 58%. As to `COc1ccc(C2CC(=O)c3cc(-c4nc(-c5cccc([N+](=O)[O-])c5)cs4)c(=O)n(-c4cc(C)cc(C)c4)c3C2)cc1` (stereo not given), the survival is inactive: 58%. The value for `Cn1c(=O)c2c(-c3ccccc3Br)n(C(C)(C)C)cc2n(C)c1=O` was inactive: 109%; that for `O=C(CCCn1c(=O)c2sccc2n(Cc2c(F)cccc2Cl)c1=O)NCc1ccccc1` was inactive: 138%. The value for `Cc1cnc2c(c1SCC(=O)N(C)c1ccccc1)c(=O)n(C)c(=O)n2C` was inactive: 85%; that for `CCCC(=O)Nc1ccc2nn(-c3ccc(CC)cc3)nc2c1` was inactive: 56%; that for `S=c1[nH]c2ccc(Cl)cc2[nH]1` was inactive: 80%. The value for `O=C(Nc1ccc(F)cc1F)c1ccc(-c2ccccc2)s1` was inactive: 93%; that for `O=C(CSc1nnc(-c2cccs2)o1)Nc1cccc(C(F)(F)F)c1` was active: 47%; that for `Cc1cccc(N2C(=O)CSC23C(=O)N(CC(=O)NCCc2ccccc2)c2ccccc23)c1` (stereo not given) was inactive: 105%. In the case of `O=C(NCc1ccccc1)/C(=C/c1ccco1)NC(=O)c1ccco1`, the survival is inactive: 81%.
